# Measured values as given in the supplement of paper PMC8728848.
# Some of the results follow.
# B1: PpFlo1 (Pichia pastoris) (protein)
# chain: MGSSHHHHHHSSGLVPRGSHMQESGDGDISDSAYACDIDATRYDGFNATIYEFQPGDGRLTRDPVFMSTGYLNRTQLHSITGVTDPGFSIYTPGVPTTTLYGIPNVNWENLLLELKGYFRAEVSGDYGLSLRNIDDSAILFFGKETAFQCCNENSISNEASTDYSLFTIFRQEGDETTNLDSFTYTQYLEAGKYYPVRTFFVNIERHAVFNFTMTLPDGTELTDFHNYIYQFGALDEEQCQA
# What was measured:
# Test in all cases: glycan array binding signal (z-score within array); higher = stronger binding
# Conditions in all cases: glycan notation: IUPAC condensed, linker removed
# [1] = target: Gal(b1-4)GlcNAc(b1-3)Gal(b1-4)GlcNAc(b1-3)Gal(b1-4)GlcNAc(b1-3)Gal(b1-4)GlcNAc(b1-3)Gal(b1-4)GlcNAc(b1-2)Man(a1-3)[Gal(b1-4)GlcNAc(b1-3)Gal(b1-4)GlcNAc(b1-3)Gal(b1-4)GlcNAc(b1-3)Gal(b1-4)GlcNAc(b1-3)Gal(b1-4)GlcNAc(b1-2)Man(a1-6)]Man(b1-4)GlcNAc(b1-4)GlcNAc
# Summary of the method: (§1)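 Columns mapping to the same glycan were averaged after glycan names were converted to IUPAC-condensed notation. The data come from 3228 arrays in the Consortium for Functional Glycomics database, limited to those with an available protein sequence. Binding is reported as a within-array Z-score averaged across arrays of one protein sequence and across linkers.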
# [2] = target: Gal(b1-4)GlcNAc(b1-3)Gal(b1-4)GlcNAc(b1-3)Gal(b1-4)GlcNAc(b1-3)Gal(b1-4)GlcNAc(b1-3)Gal(b1-4)GlcNAc(b1-2)Man(a1-3)[Gal(b1-4)GlcNAc(b1-3)Gal(b1-4)GlcNAc(b1-3)Gal(b1-4)GlcNAc(b1-3)Gal(b1-4)GlcNAc(b1-3)Gal(b1-4)GlcNAc(b1-2)Man(a1-6)]Man(b1-4)GlcNAc(b1-4)[Fuc(a1-6)]GlcNAc
# Summary of the method: as §1
# [3] = target: Gal(b1-4)GlcNAc(b1-3)Gal(b1-4)GlcNAc(b1-3)Gal(b1-4)GlcNAc(b1-3)Gal(b1-4)GlcNAc(b1-3)Gal(b1-4)GlcNAc(b1-2)[Gal(b1-4)GlcNAc(b1-3)Gal(b1-4)GlcNAc(b1-3)Gal(b1-4)GlcNAc(b1-3)Gal(b1-4)GlcNAc(b1-3)Gal(b1-4)GlcNAc(b1-6)]Man(a1-6)[Gal(b1-4)GlcNAc(b1-3)Gal(b1-4)GlcNAc(b1-3)Gal(b1-4)GlcNAc(b1-3)Gal(b1-4)GlcNAc(b1-3)Gal(b1-4)GlcNAc(b1-2)Man(a1-3)]Man(b1-4)GlcNAc(b1-4)[Fuc(a1-6)]GlcNAc
# Summary of the method: as §1
# [4] = target: Gal(b1-4)GlcNAc(b1-3)Gal(b1-4)GlcNAc(b1-3)Gal(b1-4)GlcNAc(b1-3)Gal(b1-4)GlcNAc(b1-3)Gal(b1-4)GlcNAc(b1-3)Gal(b1-4)GlcNAc(b1-2)Man(a1-3)[Gal(b1-4)GlcNAc(b1-3)Gal(b1-4)GlcNAc(b1-3)Gal(b1-4)GlcNAc(b1-3)Gal(b1-4)GlcNAc(b1-3)Gal(b1-4)GlcNAc(b1-3)Gal(b1-4)GlcNAc(b1-2)Man(a1-6)]Man(b1-4)GlcNAc(b1-4)GlcNAc
# Summary of the method: as §1
# [5] = target: Gal(b1-4)GlcNAc(b1-3)Gal(b1-4)GlcNAc(b1-3)GalNAc
# Summary of the method: as §1
# [6] = target: Gal(b1-4)GlcNAc(b1-3)Gal(b1-4)GlcNAc(b1-3)[Gal(b1-4)GlcNAc(b1-3)Gal(b1-4)GlcNAc(b1-6)]GalNAc
# Summary of the method: as §1
# [7] = target: Gal(b1-4)GlcNAc(b1-3)Gal(b1-4)GlcNAc(b1-6)[Gal(b1-3)]GalNAc
# Summary of the method: as §1
# [8] = target: Gal(b1-4)GlcNAc(b1-3)Gal(b1-4)[Fuc(a1-3)GlcNAc(b1-6)]Gal(b1-4)Glc
# Summary of the method: as §1
# [9] = target: Gal(b1-4)GlcNAc(b1-3)Gal(b1-4)[Fuc(a1-3)]GlcNAc(b1-3)Gal(b1-4)[Fuc(a1-3)]GlcNAc
# Summary of the method: as §1
# [10] = target: Gal(b1-4)GlcNAc(b1-3)GalNAc
# Summary of the method: as §1
# [11] = target: Gal(b1-4)GlcNAc(b1-3)[Fuc(a1-3)GlcNAc(b1-6)]Gal(b1-4)Glc
# Summary of the method: as §1
# [12] = target: Gal(b1-4)GlcNAc(b1-3)[Gal(b1-4)GlcNAc(b1-6)]Gal(b1-4)GlcNAc
# Summary of the method: as §1
# [13] = target: Gal(b1-4)GlcNAc(b1-3)[Gal(b1-4)GlcNAc(b1-6)]GalNAc
# Summary of the method: as §1
# [14] = target: Gal(b1-4)GlcNAc(b1-3)[GlcNAc(b1-6)]Gal(b1-4)GlcNAc
# Summary of the method: as §1
# [15] = target: Gal(b1-4)GlcNAc(b1-6)Gal(b1-4)GlcNAc
# Summary of the method: as §1
# [16] = target: Gal(b1-4)GlcNAc(b1-6)GalNAc
# Summary of the method: as §1
# [17] = target: Gal(b1-4)GlcNAc(b1-6)[Gal(b1-3)]GalNAc
# Summary of the method: as §1
# [18] = target: Gal(b1-4)GlcNAc(b1-6)[Gal(b1-4)GlcNAc(b1-3)]GalNAc
# Summary of the method: as §1
# Gal(b1-4)GlcNAc6P = target: Gal(b1-4)GlcNAc6P
# Summary of the method: as §1
# Gal(b1-6)Gal = target: Gal(b1-6)Gal
# Summary of the method: as §1
# Gal3S(b1-3)GalNAc = target: Gal3S(b1-3)GalNAc
# Summary of the method: as §1
# Gal3S(b1-3)GlcNAc = target: Gal3S(b1-3)GlcNAc
# Summary of the method: as §1
# [19] = target: Gal3S(b1-3)[Fuc(a1-4)]GlcNAc
# Summary of the method: as §1
binder,measurement,setting,value
B1,glycan array binding signal (z-score),[1],0.832
same,glycan array binding signal (z-score),[2],0.134
same,glycan array binding signal (z-score),[3],0.43
same,glycan array binding signal (z-score),[4],-0.038
same,glycan array binding signal (z-score),[5],-0.379
same,glycan array binding signal (z-score),[6],0.345
same,glycan array binding signal (z-score),[7],-0.434
same,glycan array binding signal (z-score),[8],-0.424
same,glycan array binding signal (z-score),[9],0.121
same,glycan array binding signal (z-score),[10],-0.405
same,glycan array binding signal (z-score),[11],-0.125
same,glycan array binding signal (z-score),[12],-0.583
same,glycan array binding signal (z-score),[13],-0.202
same,glycan array binding signal (z-score),[14],-0.259
same,glycan array binding signal (z-score),[15],-0.16
same,glycan array binding signal (z-score),[16],0.212
same,glycan array binding signal (z-score),[17],-0.175
same,glycan array binding signal (z-score),[18],0.113
same,glycan array binding signal (z-score),Gal(b1-4)GlcNAc6P,0.451
same,glycan array binding signal (z-score),Gal(b1-6)Gal,-0.157
same,glycan array binding signal (z-score),Gal3S(b1-3)GalNAc,-0.546
same,glycan array binding signal (z-score),Gal3S(b1-3)GlcNAc,0.113
same,glycan array binding signal (z-score),[19],-0.383
